The values below come from patent publication US20200317802A1 (Merck KGaA, published 2020).

The term Kd denotes the concentration at which binding is half-saturated. In general, koff refers to a measure of how fast the partners let go of each other. In general, EC50 (read off the curve) refers to the concentration that produces a half-maximal response.

The target in experiment [1] is T1, recombinant human ADAMTS5 (R&D Systems cat #2198-AD) (human, UniProt Q9UNA0 262-622, limits assumed).
T1 sequence: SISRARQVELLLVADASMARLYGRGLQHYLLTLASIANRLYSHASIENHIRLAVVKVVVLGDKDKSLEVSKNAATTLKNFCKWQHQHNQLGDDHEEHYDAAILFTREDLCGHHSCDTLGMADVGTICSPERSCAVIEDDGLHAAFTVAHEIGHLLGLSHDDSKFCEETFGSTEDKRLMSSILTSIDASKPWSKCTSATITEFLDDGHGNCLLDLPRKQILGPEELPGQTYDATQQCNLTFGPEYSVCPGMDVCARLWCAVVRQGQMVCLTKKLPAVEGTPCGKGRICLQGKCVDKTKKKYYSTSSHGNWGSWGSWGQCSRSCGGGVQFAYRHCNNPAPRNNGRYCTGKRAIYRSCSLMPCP
As to the kind of experiment: cell-based or functional assay.

For experiment [2], the target named is T1, recombinant human ADAMTS5 (R&D Systems …). In words: cell-based or functional assay. The source holds these as a separate data set.
Experiment [3] shares this target. As to the kind of experiment: KinExA, in solution, with HSA. On the procedure: (§1) The affinity of the formatted Nanobody construct 069 (049-35GS-ALB11) and Nanobody construct 130 (049-35GS-093-ALB11)(see also Table 6.5) were determined in solution with a kinetic exclusion assay on a KinExA3000 instrument (Sapidyne, Boise, USA). To this end, human ADAMTS5 was coupled to PMMA beads according to the manufacturer's instructions, described in detail by Darling and Brault (2004 Assay Drug Dev Technol. 2:647-57). A fixed concentration of Nanobody construct (50 pM Nanobody construct 069 or 5 pM Nanobody construct 130) was added to a dilution series of human ADAMTS5 ranging from 2 nM-0.2 pM and incubated at room temperature for 16 hours till equilibrium was reached. Subsequently, mixtures were injected via KinExA's autosampler over a column packed with human ADAMTS5-conjugated PMMA beads to capture free Nanobody construct on the beads and detect with Alexa647-labeled HSA. Percent free Nanobody construct was plotted as a function of titrated human ADAMTS5 and fitted using the KinExA Pro Software v3.2.6.
(§2) Mixtures were incubated and allowed to reach equilibrium for 24 hours prior to injection via KinExA's autosampler over a column packed with human ADAMTS5-conjugated PMMA beads.

The target in experiment [4] is T2, human serum albumin (human, UniProt P02768).
T2 construct: also called HSA; human SA
T2 sequence (P02768 25-609 limits assumed): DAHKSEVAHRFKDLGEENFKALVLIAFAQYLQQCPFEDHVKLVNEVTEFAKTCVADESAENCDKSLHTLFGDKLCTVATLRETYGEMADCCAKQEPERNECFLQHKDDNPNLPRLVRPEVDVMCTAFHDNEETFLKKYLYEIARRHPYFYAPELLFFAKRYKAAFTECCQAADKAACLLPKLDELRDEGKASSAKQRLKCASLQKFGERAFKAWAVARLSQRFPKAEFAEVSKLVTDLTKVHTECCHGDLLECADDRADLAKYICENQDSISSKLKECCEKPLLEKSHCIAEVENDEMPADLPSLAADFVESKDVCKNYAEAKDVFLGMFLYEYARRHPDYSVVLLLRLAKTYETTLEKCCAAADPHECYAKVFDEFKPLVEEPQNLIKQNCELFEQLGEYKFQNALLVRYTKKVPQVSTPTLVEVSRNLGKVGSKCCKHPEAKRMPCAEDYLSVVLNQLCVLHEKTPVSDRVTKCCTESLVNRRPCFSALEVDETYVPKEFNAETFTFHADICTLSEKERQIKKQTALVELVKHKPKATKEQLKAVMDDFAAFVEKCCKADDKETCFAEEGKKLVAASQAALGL
As to the kind of experiment: SPR, serum albumin immobilised. In general terms: In SPR one partner is held on a chip, and binding of the other changes the refractive index at the surface.

Experiment [5] deals with T3, cynomolgus monkey serum albumin (cynomolgus monkey, UniProt A2V9Z4 25-608).
T3 construct: also called cyno SA
T3 sequence (A2V9Z4 25-608 limits assumed): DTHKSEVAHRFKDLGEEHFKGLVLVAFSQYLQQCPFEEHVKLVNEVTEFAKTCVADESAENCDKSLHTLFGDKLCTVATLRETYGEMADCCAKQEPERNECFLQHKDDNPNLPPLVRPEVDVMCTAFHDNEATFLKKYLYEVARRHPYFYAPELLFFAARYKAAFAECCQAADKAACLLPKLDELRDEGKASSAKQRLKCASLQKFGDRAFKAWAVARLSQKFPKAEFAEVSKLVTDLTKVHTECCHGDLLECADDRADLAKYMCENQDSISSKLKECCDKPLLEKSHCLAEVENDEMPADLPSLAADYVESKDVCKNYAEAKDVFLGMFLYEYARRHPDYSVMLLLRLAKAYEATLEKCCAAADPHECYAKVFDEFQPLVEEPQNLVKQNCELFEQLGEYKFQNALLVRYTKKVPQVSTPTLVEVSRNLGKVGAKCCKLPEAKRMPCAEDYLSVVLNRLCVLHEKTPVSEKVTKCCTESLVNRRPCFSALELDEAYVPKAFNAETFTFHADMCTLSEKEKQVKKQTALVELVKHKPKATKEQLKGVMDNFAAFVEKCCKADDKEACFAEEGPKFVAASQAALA
In words: SPR, serum albumin immobilised.

Experiment [6] addresses T4, guinea pig serum albumin (guinea pig).
T4 construct: also called guinea Pig SA
In words: SPR, serum albumin immobilised.

The target in experiment [7] is T5, mouse serum albumin (mouse, UniProt P07724 25-608).
T5 construct: also called mouse SA
In words: SPR, serum albumin immobilised.

Experiment [8] deals with T6, rat serum albumin (rat, UniProt P02770 25-608).
T6 construct: also called rat SA
T6 sequence (P02770 25-608 limits assumed): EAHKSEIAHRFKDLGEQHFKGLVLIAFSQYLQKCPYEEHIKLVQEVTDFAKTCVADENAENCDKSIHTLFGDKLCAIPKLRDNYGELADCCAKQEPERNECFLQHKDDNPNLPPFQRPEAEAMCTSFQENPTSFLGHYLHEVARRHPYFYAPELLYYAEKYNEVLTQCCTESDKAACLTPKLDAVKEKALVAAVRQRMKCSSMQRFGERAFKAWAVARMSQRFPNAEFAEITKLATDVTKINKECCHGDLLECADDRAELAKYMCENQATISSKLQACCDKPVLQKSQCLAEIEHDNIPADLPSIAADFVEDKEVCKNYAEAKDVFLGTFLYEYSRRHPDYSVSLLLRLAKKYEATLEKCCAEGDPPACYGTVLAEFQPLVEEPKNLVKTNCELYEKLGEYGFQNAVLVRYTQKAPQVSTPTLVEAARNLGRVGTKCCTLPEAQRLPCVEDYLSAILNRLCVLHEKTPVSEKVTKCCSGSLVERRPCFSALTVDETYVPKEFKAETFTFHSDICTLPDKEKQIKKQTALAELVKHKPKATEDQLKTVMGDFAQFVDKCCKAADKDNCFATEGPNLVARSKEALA
In words: SPR, serum albumin immobilised.

Experiment [9] deals with T1, recombinant human ADAMTS5 (R&D Systems …). In words: KinExA, in solution, without HSA. On the procedure: as §1, §2
In experiment [10] the target is T7, cynomolgus monkey recombinant ADAMTS5 (cynomolgus monkey, UniProt Q9UNA0 262-622 (human entry), limits assumed).
T7 construct: in house, HEK293, His tag in the entry; also called cyno ADAMTS5
T7 chain: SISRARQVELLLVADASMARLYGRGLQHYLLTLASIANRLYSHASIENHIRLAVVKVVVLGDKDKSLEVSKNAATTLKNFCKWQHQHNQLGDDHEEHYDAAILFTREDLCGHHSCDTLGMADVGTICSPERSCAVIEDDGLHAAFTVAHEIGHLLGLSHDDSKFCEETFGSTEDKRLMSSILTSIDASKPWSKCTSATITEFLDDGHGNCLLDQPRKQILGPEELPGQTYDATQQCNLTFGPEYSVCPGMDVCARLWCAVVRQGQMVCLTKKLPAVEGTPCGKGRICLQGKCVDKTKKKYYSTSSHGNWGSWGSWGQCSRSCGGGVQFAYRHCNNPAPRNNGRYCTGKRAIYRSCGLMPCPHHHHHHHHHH
In words: KinExA, in solution; free 581 captured on human ADAMTS5 beads. On the procedure: as §2
(In general: In KinExA the mixture passes briefly over coated beads that capture the unbound partner.)

The target of experiment [11] is T8, mouse recombinant ADAMTS5 (mouse, UniProt Q9R001 262-622, limits assumed).
T8 construct: in house, HEK293, His tag in the entry
T8 sequence: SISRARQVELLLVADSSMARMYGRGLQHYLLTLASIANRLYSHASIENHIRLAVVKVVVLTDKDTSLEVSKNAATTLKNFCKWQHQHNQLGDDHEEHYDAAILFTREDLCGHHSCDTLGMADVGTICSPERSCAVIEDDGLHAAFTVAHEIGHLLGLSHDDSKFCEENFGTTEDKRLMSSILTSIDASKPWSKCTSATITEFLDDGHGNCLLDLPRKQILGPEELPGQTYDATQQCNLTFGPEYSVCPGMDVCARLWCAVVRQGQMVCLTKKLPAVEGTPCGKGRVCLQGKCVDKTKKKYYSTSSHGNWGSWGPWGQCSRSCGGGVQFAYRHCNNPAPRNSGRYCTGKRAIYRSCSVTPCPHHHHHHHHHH
The experiment is described as above. As to the method:
as §2

In experiment [12] the target is T9, rat recombinant ADAMTS5 (rat, UniProt Q9R001 262-618 (mouse entry)).
T9 construct: in house, HEK293, His tag in the entry
T9 chain: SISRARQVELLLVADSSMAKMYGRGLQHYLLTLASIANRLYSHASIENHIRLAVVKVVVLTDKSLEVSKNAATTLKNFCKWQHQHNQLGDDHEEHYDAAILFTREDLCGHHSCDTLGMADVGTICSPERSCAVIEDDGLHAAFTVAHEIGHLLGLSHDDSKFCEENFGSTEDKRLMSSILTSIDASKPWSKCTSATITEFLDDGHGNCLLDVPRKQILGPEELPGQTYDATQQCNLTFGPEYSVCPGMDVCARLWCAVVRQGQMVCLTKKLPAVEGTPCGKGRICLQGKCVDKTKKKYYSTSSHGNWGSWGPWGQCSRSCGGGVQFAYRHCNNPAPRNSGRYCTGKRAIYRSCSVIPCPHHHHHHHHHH
The experiment is described as above. As to the method:
as §2

In experiment [13] the target is T10, human ADAMTS1 (R&D Systems cat #2197-AD) (human, UniProt Q9UHI8 253-724, limits assumed).
T10 sequence (looked up): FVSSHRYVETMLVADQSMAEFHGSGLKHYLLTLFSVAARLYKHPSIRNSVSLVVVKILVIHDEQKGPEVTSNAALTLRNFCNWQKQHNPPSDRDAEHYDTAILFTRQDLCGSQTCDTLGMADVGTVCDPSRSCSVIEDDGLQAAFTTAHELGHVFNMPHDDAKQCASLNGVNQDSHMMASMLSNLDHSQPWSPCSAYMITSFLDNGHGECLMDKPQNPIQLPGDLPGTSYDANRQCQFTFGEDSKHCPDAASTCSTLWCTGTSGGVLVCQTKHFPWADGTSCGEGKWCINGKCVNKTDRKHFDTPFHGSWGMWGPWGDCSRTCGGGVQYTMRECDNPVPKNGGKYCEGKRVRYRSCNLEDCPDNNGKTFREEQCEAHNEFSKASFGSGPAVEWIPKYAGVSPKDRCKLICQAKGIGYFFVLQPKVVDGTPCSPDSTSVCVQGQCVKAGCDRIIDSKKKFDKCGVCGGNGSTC
In words: binding ELISA, hADAMTS-1 18.5nM coated, HRP conjugated anti-Nanobody tool. On the procedure: (§3) Binding to human ADAMTS1 was tested in a binding ELISA (see Error! Reference source not found. A).

The target in experiment [14] is T1, recombinant human ADAMTS5 (R&D Systems …). In words: binding ELISA, hADAMTS-5 18.5nM coated, HRP conjugated anti-Nanobody tool. As to the method: as §3
In general terms: In an ELISA, binding on a coated surface is turned into a signal by an enzyme label.

Experiment [15] addresses T11, human ADAMTS4 (R&D Systems cat #4307-AD) (human, UniProt O75173 213-685, limits assumed).
T11 sequence (looked up): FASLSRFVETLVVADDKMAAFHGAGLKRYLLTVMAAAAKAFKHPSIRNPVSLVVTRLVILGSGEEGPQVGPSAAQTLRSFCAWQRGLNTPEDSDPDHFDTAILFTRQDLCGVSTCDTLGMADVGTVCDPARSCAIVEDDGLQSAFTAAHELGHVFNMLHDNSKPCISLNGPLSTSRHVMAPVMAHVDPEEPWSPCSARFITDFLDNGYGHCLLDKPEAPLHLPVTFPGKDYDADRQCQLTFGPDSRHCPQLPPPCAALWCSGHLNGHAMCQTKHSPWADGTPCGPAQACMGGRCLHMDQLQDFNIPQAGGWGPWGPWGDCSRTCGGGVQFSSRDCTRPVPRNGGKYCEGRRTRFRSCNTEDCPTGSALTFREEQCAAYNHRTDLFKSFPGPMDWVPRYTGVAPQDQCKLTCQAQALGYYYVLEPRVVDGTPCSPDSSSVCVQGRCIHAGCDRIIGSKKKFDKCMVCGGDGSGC
As to the kind of experiment: binding ELISA, human ADAMTS4 coated at 1 ug/mL, biotinylated anti-Nanobody tool and streptavidin-HRP [Human ADAMTS-4]. As to the method:
(§4) Binding to human ADAMTS4 and ADAMTS15 was tested in a binding ELISA (see FIG. 4B). In brief, 1 μg/mL of human ADAMTS4 (R&D Systems, Minneapolis, US; cat #4307-AD) or human ADAMTS15 (R&D Systems, Minneapolis, US; cat #5149-AD) was coated overnight at 1 μg/mL onto 96-well Maxisorp ELISA plates (Nunc, Wiesbaden, Germany). […] For both streptavidin-HRP was used as a secondary detection tool (Thermo Scientific Pierce; cat #21126). Plates were then visualized by adding sTMB) (SDT, Brussels, Belgium). All dilutions and detection tools were prepared in assay diluent (=PBS+10% Superblock+0.05% Tween20). The colouring reaction was stopped after 2.5 minutes by adding 1M HCl. Optical density was measured at 450 nm with 620 nm as reference wavelength.

Experiment [16] deals with T12, human ADAMTS15 (R&D Systems cat #5149-AD) (human, UniProt Q8TE58 213-700, limits assumed).
T12 sequence (looked up): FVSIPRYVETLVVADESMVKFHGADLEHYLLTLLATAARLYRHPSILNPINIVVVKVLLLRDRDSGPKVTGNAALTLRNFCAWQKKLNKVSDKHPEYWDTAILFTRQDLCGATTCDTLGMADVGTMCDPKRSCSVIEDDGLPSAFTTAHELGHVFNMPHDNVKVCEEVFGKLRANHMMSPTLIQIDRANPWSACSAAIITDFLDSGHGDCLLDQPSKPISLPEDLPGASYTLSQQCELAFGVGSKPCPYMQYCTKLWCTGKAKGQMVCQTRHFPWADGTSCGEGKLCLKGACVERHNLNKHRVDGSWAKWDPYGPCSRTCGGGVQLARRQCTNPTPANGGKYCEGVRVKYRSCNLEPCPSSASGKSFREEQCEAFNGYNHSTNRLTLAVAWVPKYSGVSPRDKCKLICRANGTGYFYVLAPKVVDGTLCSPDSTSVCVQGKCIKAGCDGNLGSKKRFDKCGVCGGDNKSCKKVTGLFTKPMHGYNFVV
In words: binding ELISA, human ADAMTS15 coated at 1 ug/mL, biotinylated anti-Nanobody tool and streptavidin-HRP [Human ADAMTS-15]. On the procedure:
as §4

B1: Nanobody construct 581 (2F3^SO-35GS linker-Alb11) (bispecific antibody)
chain: DVQLVESGGGVVQPGGSLRLSCAASGRTVSSYAMGWFRQAPGKEREFVAGISRSAERTYYVDSLKGRFTISRDNSKNTVYLQMNSLRPEDTALYYCAADLDPNRIFSREEYAYWGQGTLVTVSSGGGGSGGGGSGGGGSGGGGSGGGGSGGGGSGGGGS[gap - about 120 residues]
notes: also called 577; C011400581
Regarding B1, the “AlphaLISA IC50” value in experiment [1] was found to be 0.188 nM. The “AlphaLISA IC50, Exp 4” value in experiment [2] was found to be 0.35 nM. Moreover, the Kd in experiment [3] turned out to be 0.00484 nM; in [4], 48 nM; in [5], 51 nM; in experiment [6], 420 nM; in experiment [7], 790 nM; in [9], 0.00365 nM. The Kd in [10] amounted to 0.00222 nM; in [11], 0.00281 nM; in experiment [12], 0.00277 nM. Besides, in [8], the koff was > 0.5 s⁻¹. Also, the figures for the binding result in [13], in experiment [15] and in experiment [16] were “no binding (tested: 10^-6 M)”, “no binding (tested: 1000 nM)” and “no binding (tested: 1000 nM)”, respectively. For the same molecule, in experiment [14], the “EC50 (read off the curve)” value was ~0.09 nM.
